The other results are listed elsewhere or left out. The list includes weakly bound sequences.
Target: T1, MBP-FoxP3dN (UniProt Q99JB6)
T1 sequence: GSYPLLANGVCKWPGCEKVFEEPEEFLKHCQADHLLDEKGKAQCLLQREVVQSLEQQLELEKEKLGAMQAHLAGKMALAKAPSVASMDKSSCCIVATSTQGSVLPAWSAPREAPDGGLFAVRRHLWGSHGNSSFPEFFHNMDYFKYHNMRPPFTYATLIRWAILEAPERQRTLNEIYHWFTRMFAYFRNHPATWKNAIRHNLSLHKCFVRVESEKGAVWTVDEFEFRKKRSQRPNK
Experiment: PD-seq (MBP pull-down with sequencing)
Details: 20 mM Tris-HCl pH 7.5, 100 mM NaCl, 1.5 mM MgCl2, 0.4 uM protein, 0.1 uM dsDNA library, 30 min, room temperature, amylose pull-down; high values mean tight binding; double strand, one strand shown

Row | Sequence | binding signal (RPM ratio (pull-down/input))
1 | GATGATTGTTCTCCCAGCTGATGAATTGTACATGTCGAGTAAACAAATTTTCCTAATCTTTCTGTTCAAGCGCCATCTAC | 0.648
2 | GATGATTGTTCTCCCAGCTGATGAATTATTTCAATCGAGTAAACAAATTTTCCTAATCTTTCTGTTCAAGCGCCATCTAC | 0.326
3 | GATGATTGTTCTCCCAGCTGATGAATTCCCCGAGTCGAGTAAACAAATTTTCCTAATCTTTCTGTTCAAGCGCCATCTAC | 0.156
4 | GATGATTGTTCTCCCAGCTGATGAATTCGCCTGGTCGAGTAAACAAATTTTCCTAATCTTTCTGTTCAAGCGCCATCTAC | 0.542
5 | GATGATTGTTCTCCCAGCTGATGAATTTCACATTTCGAGTAAACAAATTTTCCTAATCTTTCTGTTCAAGCGCCATCTAC | 0.428
6 | GATGATTGTTCTCCCAGCTGATGAATTACCGGGCTCGAGTAAACAAATTTTCCTAATCTTTCTGTTCAAGCGCCATCTAC | 0.256
7 | GATGATTGTTCTCCCAGCTGATGAATTCTACATGTCGAGTAAACAAATTTTCCTAATCTTTCTGTTCAAGCGCCATCTAC | 0.448
8 | GATGATTGTTCTCCCAGCTGATGAATTTGGCCCTTCGAGTAAACAAATTTTCCTAATCTTTCTGTTCAAGCGCCATCTAC | 1
9 | GATGATTGTTCTCCCAGCTGATGAATTGGCTGTGTCGAGTAAACAAATTTTCCTAATCTTTCTGTTCAAGCGCCATCTAC | 1.25
10 | GATGATTGTTCTCCCAGCTGATGAATTGTCACTCTCGAGTAAACAAATTTTCCTAATCTTTCTGTTCAAGCGCCATCTAC | 0.72
11 | GATGATTGTTCTCCCAGCTGATGAATTACGTACTTCGAGTAAACAAATTTTCCTAATCTTTCTGTTCAAGCGCCATCTAC | 0.522
12 | GATGATTGTTCTCCCAGCTGATGAATTACTGTGATCGAGTAAACAAATTTTCCTAATCTTTCTGTTCAAGCGCCATCTAC | 0.49
13 | GATGATTGTTCTCCCAGCTGATGAATTTCATTGCTCGAGTAAACAAATTTTCCTAATCTTTCTGTTCAAGCGCCATCTAC | 0.894
14 | GATGATTGTTCTCCCAGCTGATGAATTAGCACACTCGAGTAAACAAATTTTCCTAATCTTTCTGTTCAAGCGCCATCTAC | 0.449
15 | GATGATTGTTCTCCCAGCTGATGAATTTCTCAGATCGAGTAAACAAATTTTCCTAATCTTTCTGTTCAAGCGCCATCTAC | 0.166
16 | GATGATTGTTCTCCCAGCTGATGAATTGGTCAAATCGAGTAAACAAATTTTCCTAATCTTTCTGTTCAAGCGCCATCTAC | 0.267
17 | GATGATTGTTCTCCCAGCTGATGAATTGGCAGTGTCGAGTAAACAAATTTTCCTAATCTTTCTGTTCAAGCGCCATCTAC | 0.535
18 | GATGATTGTTCTCCCAGCTGATGAATTCTCGAAGTCGAGTAAACAAATTTTCCTAATCTTTCTGTTCAAGCGCCATCTAC | 0.188
19 | GATGATTGTTCTCCCAGCTGATGAATTCCAACTCTCGAGTAAACAAATTTTCCTAATCTTTCTGTTCAAGCGCCATCTAC | 0.516
20 | GATGATTGTTCTCCCAGCTGATGAATTAGCAATGTCGAGTAAACAAATTTTCCTAATCTTTCTGTTCAAGCGCCATCTAC | 1.08
21 | GATGATTGTTCTCCCAGCTGATGAATTCCAGTTATCGAGTAAACAAATTTTCCTAATCTTTCTGTTCAAGCGCCATCTAC | 0.709

Row | Sequence | binding signal (RPM ratio (pull-down/input))
22 | GATGATTGTTCTCCCAGCTGATGAATTGCGGGAGTCGAGTAAACAAATTTTCCTAATCTTTCTGTTCAAGCGCCATCTAC | 0.509
23 | GATGATTGTTCTCCCAGCTGATGAATTAGGTTGGTCGAGTAAACAAATTTTCCTAATCTTTCTGTTCAAGCGCCATCTAC | 1.62
24 | GATGATTGTTCTCCCAGCTGATGAATTCAAACACTCGAGTAAACAAATTTTCCTAATCTTTCTGTTCAAGCGCCATCTAC | 0.767
25 | GATGATTGTTCTCCCAGCTGATGAATTCTGTCGTTCGAGTAAACAAATTTTCCTAATCTTTCTGTTCAAGCGCCATCTAC | 2.26
26 | GATGATTGTTCTCCCAGCTGATGAATTGGATCATTCGAGTAAACAAATTTTCCTAATCTTTCTGTTCAAGCGCCATCTAC | 0.441
27 | GATGATTGTTCTCCCAGCTGATGAATTAAGACGCTCGAGTAAACAAATTTTCCTAATCTTTCTGTTCAAGCGCCATCTAC | 0.432
28 | GATGATTGTTCTCCCAGCTGATGAATTCACAGTGTCGAGTAAACAAATTTTCCTAATCTTTCTGTTCAAGCGCCATCTAC | 0.514
29 | GATGATTGTTCTCCCAGCTGATGAATTCTGGCCGTCGAGTAAACAAATTTTCCTAATCTTTCTGTTCAAGCGCCATCTAC | 0.356
30 | GATGATTGTTCTCCCAGCTGATGAATTAGCACTTTCGAGTAAACAAATTTTCCTAATCTTTCTGTTCAAGCGCCATCTAC | 0.435
31 | GATGATTGTTCTCCCAGCTGATGAATTAAGCTCCTCGAGTAAACAAATTTTCCTAATCTTTCTGTTCAAGCGCCATCTAC | 0.651
32 | GATGATTGTTCTCCCAGCTGATGAATTAACTGCGTCGAGTAAACAAATTTTCCTAATCTTTCTGTTCAAGCGCCATCTAC | 0.531
33 | GATGATTGTTCTCCCAGCTGATGAATTAAGCAAGTCGAGTAAACAAATTTTCCTAATCTTTCTGTTCAAGCGCCATCTAC | 1.51
34 | GATGATTGTTCTCCCAGCTGATGAATTCTCGTGATCGAGTAAACAAATTTTCCTAATCTTTCTGTTCAAGCGCCATCTAC | 0.306
35 | GATGATTGTTCTCCCAGCTGATGAATTTGTCATGTCGAGTAAACAAATTTTCCTAATCTTTCTGTTCAAGCGCCATCTAC | 5.15
36 | GATGATTGTTCTCCCAGCTGATGAATTAGCAGAGTCGAGTAAACAAATTTTCCTAATCTTTCTGTTCAAGCGCCATCTAC | 0.222
37 | GATGATTGTTCTCCCAGCTGATGAATTGGTTTTTTCGAGTAAACAAATTTTCCTAATCTTTCTGTTCAAGCGCCATCTAC | 2.23
38 | GATGATTGTTCTCCCAGCTGATGAATTATTTTCTTCGAGTAAACAAATTTTCCTAATCTTTCTGTTCAAGCGCCATCTAC | 1.07
39 | GATGATTGTTCTCCCAGCTGATGAATTCACTCGATCGAGTAAACAAATTTTCCTAATCTTTCTGTTCAAGCGCCATCTAC | 0.243
40 | GATGATTGTTCTCCCAGCTGATGAATTCGTTGCATCGAGTAAACAAATTTTCCTAATCTTTCTGTTCAAGCGCCATCTAC | 2.22
41 | GATGATTGTTCTCCCAGCTGATGAATTTGTTGAGTCGAGTAAACAAATTTTCCTAATCTTTCTGTTCAAGCGCCATCTAC | 5.53
42 | GATGATTGTTCTCCCAGCTGATGAATTGTCAAGTTCGAGTAAACAAATTTTCCTAATCTTTCTGTTCAAGCGCCATCTAC | 0.31

Row | Sequence | binding signal (RPM ratio (pull-down/input))
43 | GATGATTGTTCTCCCAGCTGATGAATTAGAACAGTCGAGTAAACAAATTTTCCTAATCTTTCTGTTCAAGCGCCATCTAC | 0.253
44 | GATGATTGTTCTCCCAGCTGATGAATTCGCGCTATCGAGTAAACAAATTTTCCTAATCTTTCTGTTCAAGCGCCATCTAC | 0.794
45 | GATGATTGTTCTCCCAGCTGATGAATTCAGTGCCTCGAGTAAACAAATTTTCCTAATCTTTCTGTTCAAGCGCCATCTAC | 0.968
46 | GATGATTGTTCTCCCAGCTGATGAATTACCCCTGTCGAGTAAACAAATTTTCCTAATCTTTCTGTTCAAGCGCCATCTAC | 0.273
47 | GATGATTGTTCTCCCAGCTGATGAATTAGCAACTTCGAGTAAACAAATTTTCCTAATCTTTCTGTTCAAGCGCCATCTAC | 2.03
48 | GATGATTGTTCTCCCAGCTGATGAATTGCCGACCTCGAGTAAACAAATTTTCCTAATCTTTCTGTTCAAGCGCCATCTAC | 0.405
49 | GATGATTGTTCTCCCAGCTGATGAATTGATTTTCTCGAGTAAACAAATTTTCCTAATCTTTCTGTTCAAGCGCCATCTAC | 1.46
50 | GATGATTGTTCTCCCAGCTGATGAATTATCCTAATCGAGTAAACAAATTTTCCTAATCTTTCTGTTCAAGCGCCATCTAC | 0.27
51 | GATGATTGTTCTCCCAGCTGATGAATTTCGGTCATCGAGTAAACAAATTTTCCTAATCTTTCTGTTCAAGCGCCATCTAC | 0.583
52 | GATGATTGTTCTCCCAGCTGATGAATTCTCGACCTCGAGTAAACAAATTTTCCTAATCTTTCTGTTCAAGCGCCATCTAC | 0.188
53 | GATGATTGTTCTCCCAGCTGATGAATTATACCTTTCGAGTAAACAAATTTTCCTAATCTTTCTGTTCAAGCGCCATCTAC | 0.48
54 | GATGATTGTTCTCCCAGCTGATGAATTCGGAGATTCGAGTAAACAAATTTTCCTAATCTTTCTGTTCAAGCGCCATCTAC | 0.341
55 | GATGATTGTTCTCCCAGCTGATGAATTCGTCTGGTCGAGTAAACAAATTTTCCTAATCTTTCTGTTCAAGCGCCATCTAC | 0.451
56 | GATGATTGTTCTCCCAGCTGATGAATTTTTGATCTCGAGTAAACAAATTTTCCTAATCTTTCTGTTCAAGCGCCATCTAC | 0.298
57 | GATGATTGTTCTCCCAGCTGATGAATTAATACATTCGAGTAAACAAATTTTCCTAATCTTTCTGTTCAAGCGCCATCTAC | 0.813
58 | GATGATTGTTCTCCCAGCTGATGAATTCTGAACTTCGAGTAAACAAATTTTCCTAATCTTTCTGTTCAAGCGCCATCTAC | 0.291
59 | GATGATTGTTCTCCCAGCTGATGAATTCGGCCCCTCGAGTAAACAAATTTTCCTAATCTTTCTGTTCAAGCGCCATCTAC | 1.04
60 | GATGATTGTTCTCCCAGCTGATGAATTGCCTGCGTCGAGTAAACAAATTTTCCTAATCTTTCTGTTCAAGCGCCATCTAC | 0.937
61 | GATGATTGTTCTCCCAGCTGATGAATTACTAACCTCGAGTAAACAAATTTTCCTAATCTTTCTGTTCAAGCGCCATCTAC | 0.423
62 | GATGATTGTTCTCCCAGCTGATGAATTGCATGGCTCGAGTAAACAAATTTTCCTAATCTTTCTGTTCAAGCGCCATCTAC | 1.19
63 | GATGATTGTTCTCCCAGCTGATGAATTCGTATGATCGAGTAAACAAATTTTCCTAATCTTTCTGTTCAAGCGCCATCTAC | 0.73

— PMC12820563
